In US20250270341A1 (Alector, published 2025):

T1: Full length human CD98hc on CHO cells (human)
T1 construct: CHO cells stably overexpressing it; also called CHO-human CD98hc; CHO-huCD98hc
T1 chain: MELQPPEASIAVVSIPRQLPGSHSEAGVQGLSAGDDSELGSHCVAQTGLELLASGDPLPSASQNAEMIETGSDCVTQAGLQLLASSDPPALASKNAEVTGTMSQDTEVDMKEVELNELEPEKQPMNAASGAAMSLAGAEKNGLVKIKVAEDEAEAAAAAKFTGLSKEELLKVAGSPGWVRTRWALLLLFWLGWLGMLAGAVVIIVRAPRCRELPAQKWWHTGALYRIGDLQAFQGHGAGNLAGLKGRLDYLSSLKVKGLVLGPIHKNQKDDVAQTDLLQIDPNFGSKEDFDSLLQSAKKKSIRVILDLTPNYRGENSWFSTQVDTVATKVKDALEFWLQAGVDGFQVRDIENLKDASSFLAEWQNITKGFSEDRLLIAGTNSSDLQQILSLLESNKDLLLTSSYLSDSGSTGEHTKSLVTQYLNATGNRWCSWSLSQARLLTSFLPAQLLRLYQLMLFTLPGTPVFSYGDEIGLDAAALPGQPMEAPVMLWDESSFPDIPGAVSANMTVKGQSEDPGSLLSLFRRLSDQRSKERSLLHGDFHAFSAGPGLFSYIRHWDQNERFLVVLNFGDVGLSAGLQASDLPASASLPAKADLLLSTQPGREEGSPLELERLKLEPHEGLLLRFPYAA

T2: human CD98hc endogenously expressed on HCMEC/D3 cells (human)
T2 construct: human brain endothelial cell line
T2 chain: T1 chain

T3: huCD98hc ECD Avi-His (human, UniProt P08195 105-529)
T3 construct: biotinylated on the Avi tag where captured on streptavidin; also called Human CD98-AVI-His; Human CD98hc-AVI-His
T3 sequence: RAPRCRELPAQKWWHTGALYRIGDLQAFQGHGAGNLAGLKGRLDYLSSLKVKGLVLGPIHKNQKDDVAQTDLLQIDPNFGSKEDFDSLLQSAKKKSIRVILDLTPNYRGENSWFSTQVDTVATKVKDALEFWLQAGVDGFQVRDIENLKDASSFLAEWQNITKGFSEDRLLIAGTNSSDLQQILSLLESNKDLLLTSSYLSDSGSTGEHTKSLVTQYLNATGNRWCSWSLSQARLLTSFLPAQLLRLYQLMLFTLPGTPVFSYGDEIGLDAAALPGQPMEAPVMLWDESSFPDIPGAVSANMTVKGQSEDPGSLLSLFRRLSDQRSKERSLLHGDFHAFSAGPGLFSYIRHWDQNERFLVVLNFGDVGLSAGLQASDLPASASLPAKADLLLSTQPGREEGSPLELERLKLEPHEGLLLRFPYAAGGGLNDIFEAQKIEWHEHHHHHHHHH

T4: Cyno CD98hc ECD Avi-His (cynomolgus macaque, UniProt P08195 105-529 (human entry))
T4 construct: biotinylated on the Avi tag where captured on streptavidin; also called Cyno CD98-AVI-His; Cyno CD98hc-AVI-His
T4 chain: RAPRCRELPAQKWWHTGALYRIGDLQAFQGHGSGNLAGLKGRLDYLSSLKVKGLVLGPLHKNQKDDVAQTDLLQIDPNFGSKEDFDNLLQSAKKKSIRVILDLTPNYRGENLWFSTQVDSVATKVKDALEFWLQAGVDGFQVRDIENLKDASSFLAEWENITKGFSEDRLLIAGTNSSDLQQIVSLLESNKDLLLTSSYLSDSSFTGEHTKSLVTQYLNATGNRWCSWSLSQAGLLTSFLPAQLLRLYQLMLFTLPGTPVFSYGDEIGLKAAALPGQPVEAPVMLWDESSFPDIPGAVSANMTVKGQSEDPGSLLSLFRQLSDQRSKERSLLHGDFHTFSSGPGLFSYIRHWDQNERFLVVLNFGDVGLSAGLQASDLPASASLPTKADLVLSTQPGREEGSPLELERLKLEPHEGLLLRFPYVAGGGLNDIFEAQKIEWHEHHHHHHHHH

B1: CD98hc.05.059 (2+1 bispecific antibody) (bispecific antibody)
heavy 1: EVRLLESGGGLVQPGGSLRLSCAASGFTFSNYAMGWVRQAPGKGLEWVSAISGSGGSTYYADSVKGRFTTSRDDSKNALYLQMNSLRAEDTAVYYCARGGPGWYAADVWGQGTTVTVSSASTKGPSVFPLAPSSKSTSGGTAALGCLVKDYFPEPVTVSWNSGALTSGVHTFPAVLQSSGLYSLSSVVTVPSSSLGTQTYICNVNHKPSNTKVDKKV[here human IgG1 Fc with changes without letters]GGGGSGGGGSGGGGSEIQLQQSGPELVKPGASVKVSCKASGYSFNMFWVKQSHGKSLEWIGHIDPFNGDTSYSPNFEDRASLTVDRSSNTAYMHLNSLTSEDSAVYYCARSVGAHWYFDVWGAGTTVTVSSGGSEGKSSGSGSESKSTGGSQIVLTQSPAIMSASLGERVTMTCTASSSVTSSYLYWYQQKPGSSPKLWIYSTSNLASGVPPRFSGSGSGTSYSLTISSMEAEDAATYHCQQYHRSPATFGAGTKLEIK
heavy 2: EVRLLESGGGLVQPGGSLRLSCAASGFTFSNYAMGWVRQAPGKGLEWVSAISGSGGSTYYADSVKGRFTTSRDDSKNALYLQMNSLRAEDTAVYYCARGGPGWYAADVWGQGTTVTVSS[here human IgG1 constant region with changes without letters]
light: DIQMTQSPSSLSASVGDRVTITCRASQSISSYLNWYQQKPGKAPKLLIYAASSLQSGVPSRFSGSGSGTDFTLTISSLQPEDFATYYCQQADLPAFAFGGGTKVEIKRTVAAPSVFIFPPSDEQLKSGTASVVCLLNNFYPREAKVQWKVDNALQSGNSQESVTEQDSKDSTYSLSSTLTLSKADYEKHKVYACEVTHQGLSSPVTKSFNRGEC
notes: printed VH looks shortened around CDR-H1
B2: CD98hc.05.208 (2+1 bispecific antibody) (bispecific antibody)
heavy 1: EVRLLESGGGLVQPGGSLRLSCAASGFTFSNYAMGWVRQAPGKGLEWVSAISGSGGSTYYADSVKGRFTTSRDDSKNALYLQMNSLRAEDTAVYYCARGGPGWYAADVWGQGTTVTVSSASTKGPSVFPLAPSSKSTSGGTAALGCLVKDYFPEPVTVSWNSGALTSGVHTFPAVLQSSGLYSLSSVVTVPSSSLGTQTYICNVNHKPSNTKVDKKV[here human IgG1 Fc with changes without letters]GGGGSGGGGSGGGGSQVQLQQSGPELVRPGVSVKISCKSSGYAFTDYAVHWVRQSRAMSLEWIGIISTYSGNIDYNQQFKGKATMTVDKSSSTVYMELARLTSEDSAIYFCARGGRHYYGSYYYAFDYWGQGTSVTVSSGGSEGKSSGSGSESKSTGGSDIVMTQSPSSLAISVGQKVTMSCKSSQSLLNRNNQKNYLAWYQQKPGQSPKLLLYFTSTRESGVPDRFIGSGSGTDFTLIISSVQAEDLADYFCQQHYSTPPTFGGGTKLEIK
heavy 2: EVRLLESGGGLVQPGGSLRLSCAASGFTFSNYAMGWVRQAPGKGLEWVSAISGSGGSTYYADSVKGRFTTSRDDSKNALYLQMNSLRAEDTAVYYCARGGPGWYAADVWGQGTTVTVSS[here human IgG1 constant region with changes without letters]
light: B1 light

How the values were obtained:
[1] = molecular target: T1, Full length human CD98hc on CHO cells; assay: FACS
Procedure: (§1) Purified 2+1 anti-CD98hc bispecific antibodies were screened for binding to human and cyno CD98hc by ELISA as in Example 6. Purified 2+1 bispecific antibodies were screened at concentrations ranging from 1-30 μg/mL. ELISA binding to human and cyno CD98 and control cyno TfR AVI-His tagged proteins as a ratio to secondary antibody alone were calculated, and values are listed in Table 10A. Purified 2+1 bispecific antibodies were also screened for their ability to bind CHO cells overexpressing human or mouse CD98hc or cells endogenously expressing human CD98hc by FACS. […] Data was acquired on a FACS Canto (BD Biosciences). The ratio of binding to endogenously expressing human brain endothelial cells over secondary only is also in Table 12B. 47 out of 94 of the 2+1 anti-CD98hc bispecific antibodies screened were positive by ELISA with signal at least 5-fold higher than the secondary alone, and 16 were ELISA and FACS positive which FACS binding increased 3-fold or more compared to non-expressing cells.

[2] = molecular target: T2, human CD98hc endogenously expressed on …; assay: FACS
Procedure: as §1

cyno TfR AVI-His = molecular target: T5, cyno TfR AVI-His (cyno, UniProt H9EXL1 89-760 (rhesus entry)); assay: ELISA, 1-30 ug/mL
T5 construct: control protein
Procedure: (§2) Blocking buffer was removed and human, cyno, or mouse Avi-His-tagged CD98hc and Avi-His-tagged human TfR polypeptides were added at 1 μg/ml in ELISA diluent and captured for 1 hour at room temperature. After washing three times with 300 μl of PBST (PBS+0.05% Tween20, Thermo 28352), the hybridoma cell culture supernatants or 1 μg/ml of commercially available purified mouse anti-human CD98hc monoclonal antibody (Sigma Aldrich, Cat #SAB 4700503) and rat anti-mouse CD98hc antibody (Bio-Rad Laboratories, Hercules, CA, Cat #MCA2684) were added (50 μl/well) to each well. After 30 minutes of incubation at room temperature, the plates were washed three times with 300 μl of PBST. […] After a final set of washes (3×300 μl in PBST), 50 μl/well of BioFx TMB substrate (Surmodics, Eden Praire, MN, Cat #TMBW-1000-01) was added to the wells. The reaction was then quenched after 5-10 mins with 50 μl/well of 2N sulfuric acid. The plates were read for absorbance at 450 nm on a SpectraMax M5 (Molecular Devices, Sunnyvale, CA) using SoftMax Pro software.
(§3) Purified 2+1 anti-CD98hc bispecific antibodies were screened for binding to human and cyno CD98hc by ELISA as in Example 6. Purified 2+1 bispecific antibodies were screened at concentrations ranging from 1-30 μg/mL. ELISA binding to human and cyno CD98 and control cyno TfR AVI-His tagged proteins as a ratio to secondary antibody alone were calculated, and values are listed in Table 10A. Purified 2+1 bispecific antibodies were also screened for their ability to bind CHO cells overexpressing human or mouse CD98hc or cells endogenously expressing human CD98hc by FACS. […] Data was acquired on a FACS Canto (BD Biosciences).

huCD98hc ECD Avi-His = molecular target: T3, huCD98hc ECD Avi-His; assay: ELISA, 1-30 ug/mL
Procedure: as §2, §3

Cyno CD98hc ECD Avi-His = molecular target: T4, Cyno CD98hc ECD Avi-His; assay: ELISA, 1-30 ug/mL
Procedure: as §2, §3

cyno TfR AVI-His, sequence (chain, as listed by the source): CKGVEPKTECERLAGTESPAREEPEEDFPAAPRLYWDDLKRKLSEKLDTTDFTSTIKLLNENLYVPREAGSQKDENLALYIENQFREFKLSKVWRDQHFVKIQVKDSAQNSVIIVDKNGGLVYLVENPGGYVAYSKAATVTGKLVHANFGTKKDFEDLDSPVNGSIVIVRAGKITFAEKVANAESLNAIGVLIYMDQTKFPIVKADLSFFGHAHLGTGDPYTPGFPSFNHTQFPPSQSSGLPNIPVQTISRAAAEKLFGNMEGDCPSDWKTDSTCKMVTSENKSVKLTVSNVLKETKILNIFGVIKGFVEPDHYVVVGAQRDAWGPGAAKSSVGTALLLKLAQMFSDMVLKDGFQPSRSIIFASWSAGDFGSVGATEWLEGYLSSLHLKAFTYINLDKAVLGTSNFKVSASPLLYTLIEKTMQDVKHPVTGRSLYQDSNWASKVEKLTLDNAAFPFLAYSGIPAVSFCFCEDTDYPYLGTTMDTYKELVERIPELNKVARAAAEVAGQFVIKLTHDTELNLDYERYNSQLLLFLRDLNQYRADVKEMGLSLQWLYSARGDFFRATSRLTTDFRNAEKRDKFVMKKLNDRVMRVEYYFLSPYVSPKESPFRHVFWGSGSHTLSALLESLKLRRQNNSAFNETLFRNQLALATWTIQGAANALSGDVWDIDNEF

| Binder | MFI ratio CHO huCD98/CHO parental [1] | MFI ratio HCMEC/2nd ab only [2] | ELISA ratio to 2nd only (cyno TfR AVI-His) | ELISA ratio to 2nd only (huCD98hc ECD Avi-His) | ELISA ratio to 2nd only (Cyno CD98hc ECD Avi-His) |
| --- | --- | --- | --- | --- | --- |
| B1 | 21 | 139 | 1 | 32 | 19 |
| B2 | 3 | 33 | 1 | 5 | 1 |
